Measured values as given in PubChem BioAssay AID504339 (National Center for Advancing Translational Sciences (NCATS), 2011).
About 17,000 (4.4%) of roughly 390,000 compounds were called active. This list was built around the results that the source calls inconclusive (neither active nor inactive); the mix of calls is not that of the screen. Calls follow the shape of the dose curve; as a rule, active = well fitted inhibition curve with a large enough effect; inconclusive = small, poorly fitted or top-dose-only effect; inactive = no such curve, though single readings can be large or run the other way. Potencies of inconclusive entries are doubtful fits and often do not repeat.

molecular target: Lysine-specific demethylase 4A (Homo sapiens) (UniProt O75164); assay: qHTS Assay for Inhibitors of JMJD2A-Tudor Domain; conditions: AlphaScreen JMJD2A-Tudor / H3K4me3 peptide binding; activity change, negative = inhibition: at 114 µM (top of the series); also: nearly all actives have a fitted effect of over 50% in size
% is scaled to controls: 0 for no effect and ±100 for the full control effect; potency is read from the fitted curve at half-maximal effect; tags tell the direction and shape of the fitted curve.

Sequence of UniProt O75164 (O75164 whole entry, looked up, the tested form may be a part): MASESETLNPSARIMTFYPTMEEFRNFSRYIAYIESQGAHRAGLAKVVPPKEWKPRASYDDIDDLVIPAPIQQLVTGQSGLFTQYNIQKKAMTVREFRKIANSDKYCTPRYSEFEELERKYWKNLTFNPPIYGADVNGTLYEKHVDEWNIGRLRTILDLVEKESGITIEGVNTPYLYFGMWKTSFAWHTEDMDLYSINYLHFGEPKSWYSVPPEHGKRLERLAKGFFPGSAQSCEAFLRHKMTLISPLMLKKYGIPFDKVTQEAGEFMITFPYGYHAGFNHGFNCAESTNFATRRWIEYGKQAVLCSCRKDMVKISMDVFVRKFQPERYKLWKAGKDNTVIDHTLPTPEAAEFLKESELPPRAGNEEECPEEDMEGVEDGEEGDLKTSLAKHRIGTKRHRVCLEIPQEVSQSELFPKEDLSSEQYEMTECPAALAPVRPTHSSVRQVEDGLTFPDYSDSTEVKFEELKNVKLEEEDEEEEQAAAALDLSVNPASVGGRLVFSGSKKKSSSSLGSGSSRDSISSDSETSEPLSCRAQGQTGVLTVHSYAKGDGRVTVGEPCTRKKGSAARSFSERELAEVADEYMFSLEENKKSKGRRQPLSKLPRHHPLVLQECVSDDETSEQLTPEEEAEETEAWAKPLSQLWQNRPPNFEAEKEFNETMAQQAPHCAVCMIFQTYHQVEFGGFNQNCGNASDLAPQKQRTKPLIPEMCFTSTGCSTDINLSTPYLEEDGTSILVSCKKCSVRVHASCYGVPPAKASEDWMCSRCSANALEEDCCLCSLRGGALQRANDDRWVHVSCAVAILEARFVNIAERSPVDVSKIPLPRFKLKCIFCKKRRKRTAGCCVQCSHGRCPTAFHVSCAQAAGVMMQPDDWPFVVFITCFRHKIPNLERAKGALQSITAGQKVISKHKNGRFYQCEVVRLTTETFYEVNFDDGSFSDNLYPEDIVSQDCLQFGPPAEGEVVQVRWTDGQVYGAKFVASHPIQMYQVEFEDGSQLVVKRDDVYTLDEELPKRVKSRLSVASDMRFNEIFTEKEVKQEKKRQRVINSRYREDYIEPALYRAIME

Compound	Potency	activity change, negative = inhibition
O=[N+]([O-])c1ccccc1/C=C/C=N/n1c(-c2cc(-c3ccccc3)n[nH]2)n[nH]c1=S	active: 50.1 µM	
CCOc1ccc(/C=C/C(=O)c2cc(Br)ccc(=O)c2O)cc1	active: 50.1 µM	
Cc1cc(C)n2ncc(C(=O)NC(C)C)c2n1		inactive: -15.6%
Fc1ccc([C@@H]2Nc3ccccc3[C@@H]3C=CC[C@@H]32)cc1	inconclusive: 56.2 µM [inhibitor, single point]	
CCCCCCCC/C=C\CCCCCCCC(=O)O	active: 89.1 µM	
COc1ccc(-c2cc(C3CCN(c4ncccc4[N+](=O)[O-])CC3)[nH]n2)cc1	active: 56.2 µM	
Cc1cccc(C)c1OCCN1CCOCC1	active: 28.2 µM	
CCOc1ccc(-n2cc(-c3ccccc3)c3c(NCc4ccc(F)cc4)ncnc32)cc1		inactive: -32.4%
CC[C@H](C)[C@@H]1NC(=O)c2cc([N+](=O)[O-])cc(I)c2NCC[C@@H](C(N)=O)NC(=O)[C@H](CCCN=C(N)N)NC1=O		inactive: -28.4%
CCN(CC)CCCN1C(=O)C(=O)/C(=C(/O)c2ccc(C)cc2)C1c1ccccn1 (centres undefined)	active: 89.1 µM	
O=C1/C(=C\c2ccc(Br)o2)Cc2ccccc21	inconclusive: 39.8 µM [inhibitor, partial curve]	
CC(C)[C@H](NS(=O)(=O)c1ccccc1)C(=O)Nc1ccccc1N1CCOCC1		inactive: -3.76%
CCOC(=O)C1CCCN(Cc2cccc(Oc3ccccc3)c2)C1 (centres undefined)	active: 3.16 µM	
CCc1ccc(OCC(=O)Nc2ccc(N3CCN(S(C)(=O)=O)CC3)cc2)cc1		inactive: 1.46%
COc1ccc(-c2c/c(=N\c3nc(-c4ccccc4)c(C)s3)c3ccccc3o2)cc1O	inconclusive: 28.2 µM [inhibitor, partial curve]	
CCOc1ccc(N=C2NC(=O)S/C2=C\c2ccc(Cl)cc2)cc1		inactive: -32.5%
CC(=O)c1c(C)[nH]c(C(=O)CSc2nnc(-c3cccs3)n2Cc2ccccc2)c1C	inconclusive: 25.1 µM [inhibitor, partial curve, poor fit]	
Nn1c(SCc2ccccc2)nnc1-c1ccccn1		inactive: 6.32%
CC(C)CCn1nnnc1CN1CCN(C(=O)c2ccco2)CC1	inconclusive: 20 µM [inhibitor, partial curve]	
CCOC(=O)C1CCCN(C(=O)COC(=O)c2cc(=O)c3ccccc3o2)C1 (centres undefined)		inactive: -9.3%
Cc1ccccc1NC(=S)NCC1CCC(CNC(=S)Nc2ccccc2C)CC1 (centres undefined)		inactive: -30.8%
Cc1nc2sccn2c1-c1csc(NCc2ccccc2)n1	active: 63.1 µM	
Cc1cc(C)cc(-n2ncc3c2CCCC3NC(=O)CN2CCCC2=O)c1 (centres undefined)	inconclusive: 14.1 µM [inhibitor, full curve]	
Cc1ccc(-c2[nH]nc(N)c2N=Nc2cccc(Cl)c2C)cc1	inconclusive: 3.16 µM [inhibitor, full curve, poor fit]	
CCC(=O)Nc1ccc(N/C(N)=N/c2nc(C)cc(C)n2)cc1		inactive: -17.9%

Compound	Potency	activity change, negative = inhibition
Cc1ccc2nc(SCC(=O)NCc3ccc(F)cc3)[nH]c2c1		inactive: 3.56%
CCCOc1cccc(C(=O)NC(=S)Nc2ccccc2)c1	inconclusive: 70.8 µM [inhibitor, single point]	
Cn1nc(-c2ccc(OCC(=O)Nc3ccc(Cl)cc3)cc2)c2ccccc2c1=O	inconclusive: 63.1 µM [inhibitor, partial curve]	
CN(CC(=O)Nc1ccccc1Cl)C(=O)CCc1nc2ccccc2c(=O)[nH]1	inconclusive: 39.8 µM [inhibitor, single point]	
O=S(=O)(c1cccnc1)N1CCn2cccc2C1c1ccccc1F (centres undefined)		inactive: -25.5%
COc1ccc(S(=O)(=O)Nc2cc3c(C(C)=O)c(C)oc3c3ccccc23)cc1		inactive: -21.3% [at 57.1 µM]
CC(C)=CCc1c(O)c(CC=C(C)C)c2occ(-c3ccc(O)cc3)c(=O)c2c1O	inconclusive: 44.7 µM [inhibitor, partial curve]	
COc1ccc(-n2c(-c3ccco3)n[nH]c2=S)cc1	active: 4.47 µM	
CC(=O)Nc1cccc(C(=O)O)n1		inconclusive: -99.3% [inhibitor]
CCC(C(=O)Nc1ccccc1)n1nc(-c2cc(C)ccc2C)ccc1=O (centres undefined)		inactive: -22.3%
O=S(=O)(Nc1ccc(F)cc1)c1cccc2nsnc12		inactive: -20.9%
O=C1C(Cc2ccccc2)Nc2ncnc(N3CCN(c4ccccc4)CC3)c2N1Cc1ccccc1 (centres undefined)	active: 63.1 µM	
CCCc1cc(=O)[nH]c(N/N=C/C=C\c2ccccc2)n1	inconclusive: 3.16 µM [inhibitor, full curve]	
O=C(CN1CCN(Cc2ccc3c(c2)OCO3)CC1)N1CCc2[nH]c3ccc(F)cc3c2C1	inconclusive: 56.2 µM [inhibitor, partial curve]	
Cc1ccc(CN2C(=O)C(=O)c3cc(Br)cc(C)c32)cc1	active: 25.1 µM	
Cc1ccc(N=Cc2cc(C)n(C3CCCC3)c2C)cc1		inactive: -28.8%
Cc1ccc(Nc2c([N+](=O)[O-])ccc3nonc23)c(C)c1	inconclusive: 2.82 µM [inhibitor, full curve]	
O=C(O)COc1ccccc1/C=N/NC(=O)/C(=C\c1ccc2c(c1)OCO2)NC(=O)c1ccccc1	inconclusive: 50.1 µM [inhibitor, partial curve]	
CC(C)NC(=O)COC(=O)c1ccc(NS(=O)(=O)c2ccc3c(c2)OCCO3)cc1	inconclusive: 79.4 µM [inhibitor, partial curve]	
CCCc1nc(S(=O)(=O)Cc2ccc(Cl)cc2Cl)n[nH]1	inconclusive: 89.1 µM [inhibitor, single point]	
CSCCC(NC(=O)c1ccc(Cl)cc1Cl)C(=O)N(C)Cc1nc2ccccc2c(=O)[nH]1 (centres undefined)		inactive: -26%
COc1cc(OC)cc(-c2cc(N)n(S(=O)(=O)c3cccc4nsnc34)n2)c1	inconclusive: 39.8 µM [inhibitor, partial curve]	
CN(C)c1cccc(C(=O)NCc2ccc(Cl)cc2)c1	inconclusive: 20 µM [inhibitor, single point]	
COc1ccccc1-n1c(CNC(=O)c2cccs2)n[nH]c1=S	inconclusive: 4.47 µM [inhibitor, full curve, poor fit]	
